In PubChem BioAssay AID602393 (Broad Institute, 2012):
Screen size: about 350,000 compounds; about 7,000 (2%) were called active. Inconclusive means that the source gave no clear call. Such entries were picked first, then a sample of the others. Cut-off read from the data, not from the text of the source: active = activation above about 40%; inconclusive = no clear call, values can overlap the other calls; inactive = below that.

assay: raisers of Bmi1 knock-in reporter signal – mouse ES cells, Bmi1 luciferase knock-in, single point, esBAF inhibitor project, primary screen (AID 602393); conditions: 24 h, at 12.5 µM, active compounds read high, 100% = twice the neutral-well signal;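 note: 0% = median of the plate's neutral control wells and 100% = double that signal; a rise in the Bmi1 reporter signal indicates esBAF inhibition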

SMILES | reporter increase
Oc1ccc(/C=N/NC(=S)NC2CC3CCC2C3)cc1 (centres undefined) | active: 46.7%
COc1cc(NC2c3ccccc3C(=O)N2c2ccc(C)cn2)cc(OC)c1OC (centres undefined) | inconclusive: 40.4%
O=C(c1cc(-c2cccc(O)c2)on1)N1CCOCC1 | inactive: 2.09%
COc1ccc(NC(=O)c2cc(-c3ccccc3)on2)cc1 | inconclusive: 40.3%
O=C(/C=C/c1cccs1)Nc1cccc(NC(=O)/C=C/c2cccs2)n1 | inconclusive: 42%
CCCNC(=O)N1[C@@H]2CN(C(=O)c3ccccc3)c3ccccc3[C@@H]2[C@@H]1CO | inactive: 2.41%
CC(=O)Nc1ccc(-c2csc(Nc3ccc(S(N)(=O)=O)cc3)n2)cc1 | inactive: 4.88%
Cc1ccc(SCCCn2cncn2)cc1 | inactive: 8.15%
O=C(CN1C(=O)NC2(CCCCC2)C1=O)Nc1ccc2c(c1)OCCCO2 | inconclusive: 41.6%
O=C(NNC(=S)Nc1cccc(Cl)c1)c1ccccc1 | inconclusive: 40.5%
Nc1nc(COc2ccc3ccccc3c2)cs1 | active: 59.3%
C[C@@H]1CN([C@@H](C)CO)C(=O)c2cc(NC(=O)NC3CCCCC3)ccc2O[C@@H](C)CCCCO[C@H]1CN(C)CC1CCCCC1 | inactive: -0.998%
COc1ccc(Cl)cc1C(=O)Nc1ccc2c(c1)OCCO2 | inconclusive: 48.1%
OC(CCCN1CCCCC1)(c1ccccc1)c1ccccc1 | inactive: -2.69%
COc1cccc(Nc2nc(-c3cccc(N4C(=O)c5ccccc5C4=O)c3)cs2)c1 | inconclusive: 41%
COc1ccc(Cc2c(-c3ccc(C)cc3)nc3ccc(Cl)cn23)c(C)c1 | active: 64.9%
CN(C)CC(O)c1ccc(C=Cc2ccc(Cl)cc2)cc1 (centres undefined) | active: 49%
C=C1C(=O)[C@]23C[C@H]1CC[C@H]2[C@]1(C)[C@@H](OC(C)=O)CC[C@@](C)(C(=O)O)[C@H]1C[C@@H]3O | inactive: -33.8%
COC(=O)/C(=C1/Oc2cc3c(cc2S1)OCO3)C(F)(F)F | inconclusive: 50.6%
O=C(Nc1cccc2ccccc12)c1cc2c(cc1Br)OCO2 | inactive: 2.2%
N/C(=N\OC(=O)c1ccccc1F)c1cccc([N+](=O)[O-])c1 | inconclusive: 56.6%
Cc1cccc(NC(=O)[C@H](Cc2c[nH]c3ccccc23)NC(=O)[C@@H]2Cc3ccccc3CN2)c1 | inactive: 16.8%
O=C(CCc1c[nH]c2ccccc12)Nc1ccc(S(=O)(=O)Nc2ncccn2)cc1 | inactive: 0.353%
C/C(=C\c1ccc(C(=O)O)cc1)c1ccc2c(c1)C(C)(C)CCC2(C)C | active: 45.6%
